Experimental findings from PMC12136788 are described below.

T1: UNK ZnF1-6 (called full-length) (human, UniProt Q9C0B0 30-357)
T1 sequence: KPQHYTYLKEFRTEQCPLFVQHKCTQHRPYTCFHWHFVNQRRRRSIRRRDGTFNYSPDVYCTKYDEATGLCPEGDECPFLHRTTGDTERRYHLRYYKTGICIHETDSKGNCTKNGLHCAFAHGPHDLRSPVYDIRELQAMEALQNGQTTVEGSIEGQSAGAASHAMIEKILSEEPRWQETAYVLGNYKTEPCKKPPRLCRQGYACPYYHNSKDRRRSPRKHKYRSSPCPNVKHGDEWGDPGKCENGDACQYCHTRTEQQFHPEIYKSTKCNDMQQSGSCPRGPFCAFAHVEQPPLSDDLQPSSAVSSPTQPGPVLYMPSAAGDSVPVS

B1: ENSG00000076706:stop:overlap|stop_codon|ENSG00000076706|stop_codon|NA|stop_codon (ssRNA)
RNA: GGGAGUUCUACAGUCCGACGAUCGCAGCGGUGACAAGAGGGCUCCGGGAGACCAGGGAGAGAAAUACAUCGAUCUGAGGCAUUAGCCCCGAAUCACUUCAGCUCCCUUCCCUGCCUGGACCAUUCCCAGCUCCCUGCUCACUCCAACAGAGGAUUGAGCAUCA
B2: chrX:52926401:52927765:-|three_prime_utr|ENSG00000268350|control|control|control (ssRNA)
RNA: GGGAGUUCUACAGUCCGACGAUCUUGUUUGUAAUCAUAAAUUUGUGAGCCUAAGCUACUGCAAAGGAAACUGGCCAGGUUAUUAGCCCAAAUGAAGGCAGUGGGUAACUUGGGUUUAGCCCCAACACCAGCCGCACCUAGGAACAACAGAGGAUUGAGCAUCA
B3: chr6:56056589:56057844:-|three_prime_utr|ENSG00000124749|control|control|control (ssRNA)
RNA: GGGAGUUCUACAGUCCGACGAUCAAACCUGGAAUCCAAGGGCAACCAGGCCCCCCAGGCAUCUGCGACCCAUCACUAUGUUUUAGUGUAAUUGCCAGAAGAGAUCCGUUCAGAAAAGGACCAAACUAUUAGUGUCUGAUGCCUCAACAGAGGAUUGAGCAUCA
B4: chr16:55506527:55506628:+|3pUTR|ENSG00000087245|msi1|FALSE|unique (ssRNA)
RNA: GGGAGUUCUACAGUCCGACGAUCUAUCAGUUUUAAUGCUACUACUAACAAUGAACAGUAACAAUAAUAUCCCCCUCAAUUAAUAGAGUGCUUUCUAUGUGCAAGGCACUUUUCACGUGUCACCUAUUUUAACCUUUCCAACCACAACAGAGGAUUGAGCAUCA
B5: chr8:8785477:8785578:-|3pUTR|ENSG00000147324|msi1|total|mutant (ssRNA)
RNA: GGGAGUUCUACAGUCCGACGAUCUGUUUAUCUUUAUUUUUAUAAUAUGCAAAUACAUUUAAAUUUAUACAGUUUGAAGCUUCCCGCGUCCGUUCACACUGGGUGCAAUAUUCUGCAUGAGAACUGUGCCAAGAUGGGGCUGAUCAACAGAGGAUUGAGCAUCA
B6: chr7:101206146:101206247:-|3pUTR|ENSG00000106397|msi1|FALSE|unique (ssRNA)
RNA: GGGAGUUCUACAGUCCGACGAUCCUUUGUCGACCCCUGACACUCAACCACUCUGCCAAACCUGCCCUGCCAUUGUGCCUUUUUAGGGGGCCUGGCCCCCGUCCUGGGAGUUGGGGGAUGGGUCUCUCUGUCUCCCCACUUCCUCAACAGAGGAUUGAGCAUCA

The other results are listed elsewhere or left out.

This assay concerns the target T1, UNK ZnF1-6 (called full-length). As to the kind of experiment: nsRBNS (natural sequence RNA bind-n-seq); RBNS binding buffer (assumed for nsRBNS): 25 mM Tris pH 7.5, 150 mM KCl, 3 mM MgCl2, 0.01% Triton X-100, 500 ug/ml BSA, 20 U/ml SUPERase-In, 4 C; UNK is unkempt and MSI1 is Musashi-1; names of the RNAs are library labels; protein concentration not given here; high values mean tight binding.
As to B1, the binding signal is 1.17 enrichment R.
As for B2, the binding signal is 0.424 enrichment R.
B3 came in with a binding signal of 1.06 enrichment R.
Under B4 stands 0.763 enrichment R.
B5 registered a binding signal of 0.721 enrichment R.
The molecule B6 yielded a binding signal of 0.84 enrichment R.
